# Results taken from PMC4336329 (PLoS ONE, 2015).
# Screen size: about 310,000 compounds; about 14,000 (4.5%) showed an effect of 50% or more. The effect is printed as a negative number. The list shows a part of the results.
# Molecular target: human ether-à-go-go-related gene (hERG) potassium channel (human, UniProt Q12809)
# Test: primary screen, population patch clamp on CHO cells stably expressing hERG
# 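Further: peak tail current of the secondary pulse compared with the same well before compound.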
# Sequence of human ether-à-go-go-related gene (hERG) potassium channel (Q12809 whole entry, looked up): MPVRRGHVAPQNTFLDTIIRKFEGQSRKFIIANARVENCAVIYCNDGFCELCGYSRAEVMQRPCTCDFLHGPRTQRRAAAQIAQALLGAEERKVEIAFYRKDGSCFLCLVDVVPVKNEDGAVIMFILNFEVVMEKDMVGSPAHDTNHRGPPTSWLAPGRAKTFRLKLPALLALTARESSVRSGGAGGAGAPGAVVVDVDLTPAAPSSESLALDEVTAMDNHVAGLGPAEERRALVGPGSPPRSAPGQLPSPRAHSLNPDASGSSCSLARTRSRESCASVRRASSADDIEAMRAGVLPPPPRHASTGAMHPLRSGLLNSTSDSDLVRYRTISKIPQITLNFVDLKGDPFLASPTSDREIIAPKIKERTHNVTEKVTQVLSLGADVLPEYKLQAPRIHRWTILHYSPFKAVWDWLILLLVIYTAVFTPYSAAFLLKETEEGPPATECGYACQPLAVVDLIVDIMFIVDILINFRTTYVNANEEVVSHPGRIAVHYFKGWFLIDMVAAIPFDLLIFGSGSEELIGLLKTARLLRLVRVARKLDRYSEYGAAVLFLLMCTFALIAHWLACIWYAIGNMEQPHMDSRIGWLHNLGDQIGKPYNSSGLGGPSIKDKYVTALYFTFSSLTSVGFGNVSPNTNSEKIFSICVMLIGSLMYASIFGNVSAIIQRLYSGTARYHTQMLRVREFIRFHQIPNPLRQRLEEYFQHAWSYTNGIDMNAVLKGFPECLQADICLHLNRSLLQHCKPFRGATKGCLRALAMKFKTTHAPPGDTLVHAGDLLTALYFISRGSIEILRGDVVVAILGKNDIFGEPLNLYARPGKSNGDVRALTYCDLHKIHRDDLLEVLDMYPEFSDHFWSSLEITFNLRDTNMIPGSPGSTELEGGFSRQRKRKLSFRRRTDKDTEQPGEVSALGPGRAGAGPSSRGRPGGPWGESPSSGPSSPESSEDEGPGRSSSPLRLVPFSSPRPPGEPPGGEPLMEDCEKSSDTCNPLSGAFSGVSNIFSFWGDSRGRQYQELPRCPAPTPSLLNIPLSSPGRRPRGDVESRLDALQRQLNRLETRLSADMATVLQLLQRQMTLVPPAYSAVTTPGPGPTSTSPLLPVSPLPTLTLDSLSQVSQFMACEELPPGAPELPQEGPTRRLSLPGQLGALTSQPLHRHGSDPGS
row,Structure (SMILES),"hERG current change (%, negative = inhibition) at 10uM [%]"
1,CCOC(=O)c1ccc(NC(=O)COC(=O)Cc2csc(-c3ccccc3)n2)cc1,9.08
2,O=C1Nc2ccc(Cl)cc2[C@@](C#CC2CC2)(C(F)(F)F)O1,13.9
3,CCN1C(=O)CSC1=NC12CC3CC(CC(C3)C1)C2,2.7
4,COc1ccc(CC(NC(C)=O)C(=O)NC2CCN(C(=O)c3ccc(OC)c(OC)c3)CC2)cc1OC (stereo not shown),9.8
5,Cc1cc2cc(CNC(=O)CCC(=O)O)ccc2[nH]1,-8.3
6,CCCCN1CC2=C(C1=O)C(c1ccc(O)cc1)NC(=O)N2C (stereo not shown),-2.81
7,Cc1cccc(C)c1NC(=O)CNC(=O)c1cncc(Br)c1,27
8,CCCc1nnc(NC(=O)c2nc(S(=O)(=O)Cc3cccc(C)c3)ncc2Cl)s1,8.01
9,CCOc1ccc(NC(=O)CN(C)C(=O)c2c(C)noc2C)cc1OCC,11
10,COC(=O)[C@@H]1CCCN1Cc1c(C(=O)N2CCCCC2)nc2c(C)cccn12,-29.7
11,Cc1cccc(NC(=O)Cn2c(=O)n(C)c3ccccc32)c1,13.8
12,CN(C)CCN1C(=O)C(=O)/C(=C(/O)c2ccccc2)C1c1ccccc1F (stereo not shown),1.74
13,O=S(=O)(NC1CCCCC1N1CCN(c2ccccc2F)CC1)c1ccccc1 (stereo not shown),-6.84
14,CCCCCN(C(=O)COC(=O)CSc1ccc([N+](=O)[O-])cc1)c1c(N)n(CCCC)c(=O)[nH]c1=O,-40.5
15,CC1(C)CC(=O)C=C(NCC(=O)O)C1,-0.925
16,CC1CCCCC1NC(=O)CCNC(=O)N1CC(=O)Nc2ccccc21 (stereo not shown),10.5
17,C/C(=N\NC(=O)CNc1cccc(C(F)(F)F)c1)c1cccs1,17.5
18,CC(=O)c1ccc(OC(=O)Cc2cccc3ccccc23)cc1,3.13
19,COc1ccccc1NC(=O)C(=O)/C=C(\O)c1ccccc1,8.17
20,Cc1ccccc1CNC(=O)C1CCC(=O)N(C2CC2)C1 (stereo not shown),15.5
21,COc1ccc(C(=O)CN2C(=O)NC(C)(c3ccc(C)cc3)C2=O)cc1OC (stereo not shown),4.3
22,COc1ccc(Br)cc1/C=N/NC(=O)c1nc(-c2ccccc2)n2c1CCCCC2,10.2
23,CC1CCc2sc(C(=O)Nc3ccc(N4CCOCC4)cc3)cc2C1 (stereo not shown),11.6

row,Structure (SMILES),"hERG current change (%, negative = inhibition) at 10uM [%]"
1,Cc1[nH]c2ccccc2c1C(=O)C(=O)NCCc1c[nH]c2ccccc12,3.82
2,O=C(Cn1cnc2c(cnn2-c2ccccc2)c1=O)NCCc1ccccc1,5.77
3,Cc1cc(-n2c(C)cc(C(=O)CSc3nncn3C(C)C)c2C)no1,9.21
4,CC(C)N1CSC(=S)N(Cc2ccccc2)C1,22.4
5,COc1cccc(-c2ccc(NC(=O)C3CCCN(Cc4cnc(N(C)C)s4)C3)cc2)c1 (stereo not shown),8.97
6,Nc1cc(-c2ccccc2)n2c(n1)nc1ccccc12,-22.6
7,Cc1ccccc1NC(=O)c1nc[nH]c1C(=O)NCc1ccccc1,-15.2
8,C/C(=N\S(=O)(=O)c1ccc(C)cc1)N1CCCCC1,12.8
9,O=C(CCc1ccccc1)NNC(=O)CCc1ccccc1,12.7
10,Nn1c(SCc2ccccc2)nc2ccccc21,-6.9
11,C/C(=N\NC(=O)c1ccc(Cl)cc1)c1cccc(NC(=O)c2cccnc2)c1,-20
12,COc1nc(OCC#N)nc(N2CCCCC2)n1,9.65
13,O=C(Nc1nnc(CCOCCOCCc2nnc(NC(=O)c3ccco3)s2)s1)c1ccco1,-0.704
14,COc1ccc(C(=O)c2ccsc2N)cc1,3.5
15,CCOc1ccc(S(=O)(=O)Nc2ccn(C)n2)cc1,-27.8
16,O=C(COC(=O)c1ccccc1Nc1ccccc1F)c1ccccc1,12.7
17,COc1cccc(OC)c1C(=O)Nc1ccc2c(c1)n(C)c(=O)n2C,18.2
18,COc1ccc(N2CCN(C(=O)c3cccc4nc(C)oc34)CC2)cc1,13.5
19,COc1ccc(Nc2nnc(SCC(=O)N3CC(=O)Nc4ccccc43)s2)cc1,14.8
20,CN(C(=O)COC(=O)c1cccc(S(=O)(=O)N2CCCCC2)c1)C1CCS(=O)(=O)C1 (stereo not shown),-19.4
21,COc1ccccc1OCC(=O)NC1CCSc2ccccc21 (stereo not shown),-15.8
22,COc1ccc(NC(=O)CN(C)S(=O)(=O)c2ccc3c(c2)CCCN3C(C)=O)cc1,12.1
23,CC1(C)CC(=O)C=C(NCc2ccncc2)C1,-1.21

row,Structure (SMILES),"hERG current change (%, negative = inhibition) at 10uM [%]"
1,CC(C)(C)n1cn[nH]c1=S,22
2,O=C(Oc1ccc2c(=O)c(Cl)coc2c1)c1cccnc1,16.3
3,COc1ccc(S(=O)(=O)N2CCC(C(=O)N3CCc4ccccc4C3)CC2)cc1Cl,-12.7
4,O=C(O)Cc1ccc(NC(=O)c2cccs2)cc1,5.61
5,Cc1cccc(C)c1OCc1nnc(NC(=O)CSc2ccc(Cl)cc2)s1,8.78
6,COC(=O)c1ccc(C)c(NC(=O)c2ccc(Cl)c([N+](=O)[O-])c2)c1,-7.31
7,CC(=O)c1cc(C(=O)N2CCc3c([nH]c4ccccc34)C2C2CCCCC2)[nH]n1 (stereo not shown),-10.3
8,CCn1cc(C(=O)OCC(=O)Nc2cccc(Cl)c2Cl)c(=O)c2ccc(C)nc21,1.81
9,COc1ccc(C2N(c3ccc(OC)cc3)C(=S)N3CCCN23)cc1 (stereo not shown),0.191
10,CCc1cc(=O)n2[nH]c(C)c(-c3ccccc3OC)c2n1,-5.14
11,COc1ccc(-c2nc(-c3ccncc3)no2)c(OC)c1,5.38
12,Cc1ccc(CN2CCCNC2=O)cc1,-13
13,Cc1cccc(CCNC(=O)C2CCC(CNc3c(N4CCCC4)c(=O)c3=O)CC2)c1 (stereo not shown),10.3
14,CCN(CCCNC(=O)C1CCN(S(=O)(=O)CC)CC1)c1ccccc1,-21.7
15,COc1ccccc1NC(=O)CSCC(=O)N1c2ccccc2CCc2ccccc21,-8.71
16,COc1cccc(N(CC(=O)N/N=C(\C)c2cccs2)S(C)(=O)=O)c1,6.58
17,CC(C)(C)NC(=O)CN(CCN1CCOCC1)C(=O)CNS(=O)(=O)c1ccc(Cl)cc1,27.7
18,CCSc1nnc(NC(=O)CSc2nc3c(cc2C#N)CCCC3)s1,5.33
19,Cc1ccc(/C=N/n2c(=O)c(C(C)(C)C)nn3cnnc23)cc1,0.988
20,C=CCN(CC(=O)NC1CCCC1)C(=O)C(=O)Nc1ccc2c(c1)OCCO2,25
21,O=C(NCc1nc(-c2ccccc2)cs1)c1ccccc1,8.6
22,O=C(Nc1cc(C(F)(F)F)ccc1N1CCOCC1)c1ccccc1,12.6
23,Cc1nc(Nc2cccc(O)c2)c2oc3ccccc3c2n1,12.7

row,Structure (SMILES),"hERG current change (%, negative = inhibition) at 10uM [%]"
1,CC(=O)Nc1c2c(nn1-c1ccccc1C)CS(=O)(=O)C2,13.7
2,Cc1cccc(OCCc2nnc(N)s2)c1C,15.2
3,O=C(Nc1ccc(F)cc1)N1CCC(c2nc3c(nnn3Cc3ccccc3Cl)c(=O)[nH]2)CC1,8.68
4,Cc1ccc(OCc2ccc(C(=O)N3CCCC3)o2)cc1C,-48.6
5,CCS(=O)(=O)c1ccccc1C(=O)NC1CCCc2ccccc21 (stereo not shown),22.7
6,O=C(CSc1n[nH]c(-c2ccccc2)n1)Nc1ccc(N2CCOCC2)cc1,14.5
7,C=CCNC(=S)N1CCN(c2cccc(C(F)(F)F)c2)CC1,-36.4
8,Cc1ccc(OCCn2ccc(=O)[nH]c2=O)cc1C,1.46
9,N#C/C(=C1\C(=O)Nc2c(Cl)cc(Cl)cc21)c1nnc2n1CCCCC2,-5.38
10,CCOC(=O)c1ccc(NC(=O)C2CCN(S(=O)(=O)c3c(C)nn(C)c3C)CC2)cc1,-28.3
11,CC(=O)Nc1ccc(S(=O)(=O)Nc2ccc(N3CCOCC3)c(F)c2)cc1,0.0769
12,O=C(NCc1ccccc1)C(=O)NCC(c1ccco1)N1CCOCC1 (stereo not shown),-2.29
13,CC1CCCN(C(=O)c2ccc(S(=O)(=O)Nc3ccccc3Cl)cc2)C1 (stereo not shown),6.76
14,O=C(Nc1ccc2c(c1)OCO2)N1CCN(c2ccc(F)cc2)CC1,-28
15,CCOC(=O)C(=O)Nc1nnc(Cc2ccc(OC)c(OC)c2)s1,-5.76
16,OCC[C@H]1C[C@@H](O)[C@H](O)[C@]2(CCCCO2)O1,3.51
17,C=CCc1cccc2cc(C(=O)NC(C)(C)C)c(=O)oc12,5.26
18,CC(=O)NC(CCS(C)(=O)=O)C(=O)Nc1nc(C)cs1 (stereo not shown),0.744
19,CCOCCCNC(=O)C1CCN(C(=O)N(C)C)CC1,11.3
20,Cc1ccc(Nc2nc3c(c(=O)[nH]c(=O)n3C)n2Cc2ccc(F)cc2)cc1,19.9
21,CCC(C(=O)NCCCN1CCN(CCCNC(=O)C(CC)c2ccccc2)CC1)c1ccccc1 (stereo not shown),31.2
22,OCC12CO[C@@H]3c4ccccc4[C@H](OC1)N32 (stereo partly shown),18.3
